Assay results reported in PubChem BioAssay AID504339 (National Center for Advancing Translational Sciences (NCATS), 2011).
The campaign covered roughly 390,000 compounds. About 17,000 (4.4%) were called active. This list was built around the results that the source calls inconclusive (neither active nor inactive); the mix of calls is not that of the screen. Calls follow the shape of the dose curve; as a rule, active = well fitted inhibition curve with a large enough effect; inconclusive = small, poorly fitted or top-dose-only effect; inactive = no such curve, though single readings can be large or run the other way. A potency beside an inconclusive call is a rough fit, not a confirmed value.

biological target: Lysine-specific demethylase 4A (Homo sapiens) (UniProt O75164); test: qHTS Assay for Inhibitors of JMJD2A-Tudor Domain; conditions: AlphaScreen JMJD2A-Tudor / H3K4me3 peptide binding; activity change, negative = inhibition: at 114 µM (top of the series); also: nearly all actives have a fitted effect of over 50% in size
% is scaled to controls: 0 for no effect and ±100 for the full control effect; potency is read from the fitted curve at half-maximal effect; tags tell the direction and shape of the fitted curve.

Sequence of UniProt O75164 (O75164 whole entry, looked up, the tested form may be a part): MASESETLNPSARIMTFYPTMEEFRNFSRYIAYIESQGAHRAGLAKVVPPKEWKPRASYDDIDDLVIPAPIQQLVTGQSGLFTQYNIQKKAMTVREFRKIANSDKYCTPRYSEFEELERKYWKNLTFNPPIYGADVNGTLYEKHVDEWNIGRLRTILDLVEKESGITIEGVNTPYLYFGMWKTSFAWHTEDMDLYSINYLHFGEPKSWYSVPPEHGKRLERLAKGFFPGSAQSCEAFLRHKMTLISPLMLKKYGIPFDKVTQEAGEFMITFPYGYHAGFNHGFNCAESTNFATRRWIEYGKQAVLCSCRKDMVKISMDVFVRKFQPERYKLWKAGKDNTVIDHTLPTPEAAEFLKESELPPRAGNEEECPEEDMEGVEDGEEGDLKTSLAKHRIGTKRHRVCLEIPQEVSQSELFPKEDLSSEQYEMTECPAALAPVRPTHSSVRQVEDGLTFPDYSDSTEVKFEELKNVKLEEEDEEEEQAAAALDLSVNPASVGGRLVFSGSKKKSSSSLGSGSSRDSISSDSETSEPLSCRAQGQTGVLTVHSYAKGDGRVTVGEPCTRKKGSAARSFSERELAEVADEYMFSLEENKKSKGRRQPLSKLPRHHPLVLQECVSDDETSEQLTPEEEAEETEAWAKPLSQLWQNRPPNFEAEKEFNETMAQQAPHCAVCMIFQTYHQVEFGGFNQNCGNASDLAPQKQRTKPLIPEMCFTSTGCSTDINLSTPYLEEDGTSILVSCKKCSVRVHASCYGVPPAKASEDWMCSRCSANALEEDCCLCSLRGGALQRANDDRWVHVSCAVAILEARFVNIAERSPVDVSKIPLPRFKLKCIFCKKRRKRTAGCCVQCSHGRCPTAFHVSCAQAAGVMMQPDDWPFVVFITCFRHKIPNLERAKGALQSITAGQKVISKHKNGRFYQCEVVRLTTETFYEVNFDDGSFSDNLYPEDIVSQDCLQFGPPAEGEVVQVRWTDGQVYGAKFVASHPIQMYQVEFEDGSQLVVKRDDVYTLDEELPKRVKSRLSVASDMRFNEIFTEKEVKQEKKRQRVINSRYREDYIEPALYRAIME

Structure (SMILES) | activity change, negative = inhibition | Potency
Cc1ccc2c(c1)cc(C(=O)NCc1ccc(F)cc1)n2C | inactive: 1.66% | –
Cc1ccc(CN2CCN(C(=O)c3ccncc3)CC2)cc1 | – | active: 7.94 µM
CC1CCCC(N2CCN(S(=O)(=O)c3ccccc3)CC2)C1 (stereo not drawn) | – | active: 3.98 µM
Cc1cnc([N+](=O)[O-])n1CCOC(=O)NC(=O)c1c(F)cccc1F | inactive: -5.63% | –
CN(CC(=O)Nc1ccc(S(=O)(=O)N2CCCC2)cc1)Cc1c(F)cccc1Cl | inactive: -12.4% | –
COc1cc(NC(=O)CN(C)C2CCCCC2)c(C)cc1[N+](=O)[O-] | – | inconclusive: 56.2 µM [inhibitor, partial curve]
NC(=NCCc1c[nH]c2ccccc12)NC(=O)c1ccc(F)cc1 | – | inconclusive: 39.8 µM [inhibitor, partial curve]
COc1ccccc1N1CCN(c2ccc(=O)n(CC(=O)O)n2)CC1 | inactive: -5% | –
CCc1nc(N)nc(N)c1-c1ccc(Cl)c(N=[N+]=[N-])c1 | – | inactive
COc1cccc(CNC(=O)CSc2nc3ccccc3nc2Cc2ccccc2)c1 | inactive: -21.1% | –
CC1Cc2cc(/C=C3/SC(=S)N(C)C3=O)ccc2O1 (stereo not drawn) | – | inconclusive: 10 µM [inhibitor, full curve, poor fit]
COc1ccc(CN2CCN(c3ncccn3)CC2)c(C)c1C | – | active: 17.8 µM
S=C(Nc1ccccc1)N1CCc2ccccc21 | inactive: -24.7% | –
O=C(CCN1C(=O)C2C3CC(C(Br)C3Br)C2C1=O)OCC(=O)c1ccccc1 (stereo not drawn) | – | active: 79.4 µM
CC(=O)Nc1ccccc1OCC(=O)c1cc(C)n(Cc2cccs2)c1C | – | inconclusive: 79.4 µM [inhibitor, partial curve]
O=c1[nH]c2ccc(NS(=O)(=O)c3ccc(F)c(Cl)c3)cc2[nH]1 | – | inconclusive: 89.1 µM [inhibitor, partial curve]
NC(=S)NN=C1CCC(C2CCCCC2)CC1 (stereo not drawn) | – | inconclusive: 44.7 µM [inhibitor, partial curve]
CCCC(=O)Nc1cc(S(=O)(=O)N2CCOCC2)ccc1N1CCCCC1 | inactive: -11.6% | –
Cc1cccc(NC(=S)NNC(=O)c2csc3c2CCC(C)C3)c1 (stereo not drawn) | – | inconclusive: 56.2 µM [inhibitor, partial curve]
CN(C)/C=N/C(=S)Nc1ccc(Cl)c(Cl)c1 | – | inconclusive: 25.1 µM [inhibitor, single point]
Cc1ccc(Nc2nc(N)nc(CN3CCN(Cc4ccccc4)CC3)n2)cc1Cl | – | inconclusive: 39.8 µM [inhibitor, partial curve]
Cc1ccc2c(c1)[C@@H]1CN(C)CC[C@@H]1N2S(=O)(=O)c1ccc([N+](=O)[O-])cc1 | – | inconclusive: 79.4 µM [inhibitor, partial curve]
CN(C)c1ccc(C(CNC(=O)c2ccccc2Cl)N2CCc3ccccc32)cc1 (stereo not drawn) | – | active: 17.8 µM
CN1C(=O)S/C(=C/c2cccnc2)C1=O | inactive: -2.24% | –
Cc1ccc(Cn2c(C(=O)O)c(CNCCc3cccs3)c3ccc(C)cc32)cc1 | – | inconclusive: 39.8 µM [inhibitor, partial curve]

Structure (SMILES) | activity change, negative = inhibition | Potency
CCC1Nc2ncnc(N3CCCCC3)c2N(Cc2ccc(Br)cc2)C1=O (stereo not drawn) | – | inconclusive: 89.1 µM [inhibitor, partial curve]
CCCn1c(N2CCC(Cc3ccccc3)CC2)nc2c1c(=O)[nH]c(=O)n2C | – | inconclusive: 56.2 µM [inhibitor, partial curve]
O=C(CCCN1C(=O)/C(=C/c2ccco2)SC1=S)Nc1cccc(C(=O)O)c1 | – | inconclusive: 79.4 µM [inhibitor, partial curve]
O=C(OCc1ccccc1Cl)c1ccc(-c2nnn(Cc3ccccc3Cl)n2)cc1 | inactive: 1.49% | –
CCOC(=O)N1CCN(/[N+]([O-])=N/Oc2ccc([N+](=O)[O-])cc2[N+](=O)[O-])CC1 | inactive: -19.3% | –
Cc1ccc2nc3cc([N+](=O)[O-])cc([N+](=O)[O-])c3cc2c1 | – | inconclusive: 12.6 µM [inhibitor, partial curve]
C/C=C/c1cc(OC)c2c(c1)[C@H](C)[C@@H](c1ccc(O)c(OC)c1)O2 | – | inconclusive: 50.1 µM [inhibitor, partial curve]
COc1cccc(C(=O)N2CCCC(Nc3ccc(C)c(C)c3)C2)c1 (stereo not drawn) | – | inconclusive: 79.4 µM [inhibitor, partial curve]
CC1CN(c2nc(Nc3ccccc3F)nc(N)c2[N+](=O)[O-])CC(C)O1 (stereo not drawn) | – | inconclusive: 63.1 µM [inhibitor, partial curve]
Cc1ccc(-n2ncc3c(N(CCO)Cc4ccccc4)ncnc32)cc1 | inactive: -6.73% | –
COc1cc(C(=O)NCc2ccc(OCCN(C)C)cc2)cc(OC)c1OC | – | inconclusive: 39.8 µM [inhibitor, single point]
COc1ccc(N2C(=O)CC(N(CCc3ccccc3)C(=O)c3ccccc3)C2=O)cc1 (stereo not drawn) | inactive: -4.51% | –
CCN1CCN(C(c2cccc(OC)c2OC)c2nnnn2Cc2ccco2)CC1 (stereo not drawn) | – | inconclusive: 44.7 µM [inhibitor, partial curve]
COc1ccc(C(=O)Nc2ccc(S(=O)(=O)N3CCCCC3)cc2)cc1OC | – | active: 79.4 µM
Cc1ccc(-n2c(Cc3cccn3C)nnc2SCC(=O)NCc2ccc3c(c2)OCO3)cc1 | – | inconclusive: 63.1 µM [inhibitor, partial curve, poor fit]
CN(C)c1ccccc1C(=O)c1ccccc1N(C)C | – | inconclusive: 50.1 µM [inhibitor, partial curve]
COc1ccc(C2NC(=O)NC(C)=C2C(=O)OCC2CCCCC2)cc1OC (stereo not drawn) | inactive: -13.4% | –
COc1cc(OC)c(OC)cc1CNC(=O)c1cc(=O)[nH]c2ccccc12 | inactive: -3.01% | –
C#CCOCCOCCOCCNc1nc(N2CCN(C(=O)[C@H](CCC(=O)O)n3cc(C(N)CO)nn3)CC2)nc(N2CCN(C(=O)[C@H](Cc3cc4ccccc4[nH]3)n3cc(C(N)[C@H](C)CC)nn3)CC2)n1 (stereo partly drawn) | – | active: 44.7 µM
COc1ccc(NC(=O)c2ccc3c(c2)NC(=O)CS3)cc1 | – | active: 56.2 µM
CC(C)c1nc(SCC(=O)Nc2nccs2)c2ccccc2n1 | – | inconclusive: 56.2 µM [inhibitor, partial curve]
O=C(O)CCc1ccc(-c2ccccc2)n1-c1cccc(Br)c1 | – | inconclusive: 63.1 µM [inhibitor, partial curve]
CCC(C)NC(=O)CCSCCC(=O)NC(C)CC (stereo not drawn) | inactive: -9% | –
CCOc1ccc(/C(O)=C2/C(=O)C(=O)N(CCOCCO)C2c2ccccn2)cc1 (stereo not drawn) | – | inconclusive: 17.8 µM [inhibitor, full curve, poor fit]
CCOC(=O)CC1C(=O)NCCN1C(=S)NC(=O)c1ccccc1OC (stereo not drawn) | – | active: 28.2 µM

Structure (SMILES) | activity change, negative = inhibition | Potency
O=C(/C=C/NNC(=O)c1ccc(Cl)cc1)c1ccccc1 | – | inconclusive: 4.47 µM [inhibitor, full curve]
Cc1ccc(NC(=O)CN2C(=O)S/C(=C\c3ccc(C(=O)O)cc3)C2=O)cc1 | – | inconclusive: 50.1 µM [inhibitor, partial curve, poor fit]
Cc1cccc(NC(=S)NCCc2c[nH]c3ccccc23)c1 | – | inconclusive: 25.1 µM [inhibitor, single point]
Cn1cccc1/C=C1\SC(=S)N(NC(=O)c2ccccc2)C1=O | – | inconclusive: 44.7 µM [inhibitor, partial curve]
COc1cccc(NC(=O)CSc2nnc(CN3CCOCC3)n2C)c1 | – | inconclusive: 79.4 µM [inhibitor, single point]
CC(NC(=O)COC(=O)c1cc(NS(=O)(=O)c2ccc(Cl)c([N+](=O)[O-])c2)ccc1O)C1CC2CCC1C2 (stereo not drawn) | – | inconclusive: 44.7 µM [inhibitor, partial curve]
CC(C)CC(=O)N1CCN(Cc2ccccc2Br)CC1 | – | active: 17.8 µM
Clc1ccc(CCNC(c2cccc(Cl)c2)c2nnc(-c3ccccc3)o2)cc1 (stereo not drawn) | inactive: 41.1% | –
Cn1cc(S(=O)(=O)N2CCCCCC2)cc1C(=O)N1CCN(c2ccc(Cl)cc2)CC1 | – | inconclusive: 50.1 µM [inhibitor, partial curve]
CCC(C)C(=O)Nc1nc(C)c(-c2csc(Nc3cc(OC)ccc3OC)n2)s1 (stereo not drawn) | – | active: 50.1 µM
COc1ccc(N/C=C/C(=O)c2ccc(Cl)cc2)cc1 | inactive: -0.692% | –
CC1=C(C(=O)Nc2ccccc2)C(c2ccccc2Cl)n2ncc(C(=O)Nc3cccc(C)c3)c2N1 (stereo not drawn) | inactive: -23% | –
Oc1nc(Nc2cccc(Cl)c2)sc1/C=C1\C=Nc2ccccc21 | – | inconclusive: 11.2 µM [inhibitor, full curve, poor fit]
COc1ccc(NC(=O)CN(c2ccc(F)cc2)S(=O)(=O)c2ccccc2)c(OC)c1 | inactive: -31.9% | –
Cc1ccc(OCc2cc(C(=O)N3CCc4[nH]cnc4C3c3ccccn3)no2)cc1C (stereo not drawn) | – | inconclusive: 31.6 µM [inhibitor, partial curve]
CCOC(=O)c1c(NC(=O)c2cc(=O)c3c(C)cc(C)cc3o2)sc2c1CCC2 | inactive: -13.5% | –
Cc1ccc(C)c(S(=O)(=O)/N=C2\C=C(NS(=O)(=O)c3ccccc3)C(=O)c3ccccc32)c1 | – | active: 22.4 µM
Cc1cccc(NC(=O)CSc2ccc(-c3ccco3)nn2)c1 | inactive: -10.4% | –
COc1cccc(CN2CCN(C(=O)c3ccc(-c4ccccc4)cc3)CC2)c1 | – | active: 2.24 µM
Cc1nc(SCC(=O)N2CCN(c3ccccn3)CC2)c(C#N)c(C)c1C | inactive: -15% | –
CCOC(=O)c1c(/N=C/c2ccc(C)cc2O)sc2c1CCN(C)C2 | – | inconclusive: 50.1 µM [inhibitor, partial curve]
CC(C)(C)OC(=O)N1CCC(c2c(C(=O)N3CCOCC3)cnn2-c2ccccc2Cl)CC1 | inactive: -11% | –
S=c1[nH]nc(-c2cccs2)n1/N=C/c1cn(-c2ccccc2)nc1-c1ccccc1 | – | inconclusive: 31.6 µM [inhibitor, partial curve]
